Data as given in article PMC4336329 (PLoS ONE, 2015).
The whole screen tested about 310,000 compounds, of which about 2,200 (0.71%) showed an effect of 50% or more. The effect is printed as a negative number. The list shows a part of the results.

Target: human ether-à-go-go-related gene (hERG) potassium channel (human, UniProt Q12809)
Test: primary screen, population patch clamp on CHO cells stably expressing hERG

human ether-à-go-go-related gene (hERG) potassium channel, sequence (Q12809 whole entry, looked up): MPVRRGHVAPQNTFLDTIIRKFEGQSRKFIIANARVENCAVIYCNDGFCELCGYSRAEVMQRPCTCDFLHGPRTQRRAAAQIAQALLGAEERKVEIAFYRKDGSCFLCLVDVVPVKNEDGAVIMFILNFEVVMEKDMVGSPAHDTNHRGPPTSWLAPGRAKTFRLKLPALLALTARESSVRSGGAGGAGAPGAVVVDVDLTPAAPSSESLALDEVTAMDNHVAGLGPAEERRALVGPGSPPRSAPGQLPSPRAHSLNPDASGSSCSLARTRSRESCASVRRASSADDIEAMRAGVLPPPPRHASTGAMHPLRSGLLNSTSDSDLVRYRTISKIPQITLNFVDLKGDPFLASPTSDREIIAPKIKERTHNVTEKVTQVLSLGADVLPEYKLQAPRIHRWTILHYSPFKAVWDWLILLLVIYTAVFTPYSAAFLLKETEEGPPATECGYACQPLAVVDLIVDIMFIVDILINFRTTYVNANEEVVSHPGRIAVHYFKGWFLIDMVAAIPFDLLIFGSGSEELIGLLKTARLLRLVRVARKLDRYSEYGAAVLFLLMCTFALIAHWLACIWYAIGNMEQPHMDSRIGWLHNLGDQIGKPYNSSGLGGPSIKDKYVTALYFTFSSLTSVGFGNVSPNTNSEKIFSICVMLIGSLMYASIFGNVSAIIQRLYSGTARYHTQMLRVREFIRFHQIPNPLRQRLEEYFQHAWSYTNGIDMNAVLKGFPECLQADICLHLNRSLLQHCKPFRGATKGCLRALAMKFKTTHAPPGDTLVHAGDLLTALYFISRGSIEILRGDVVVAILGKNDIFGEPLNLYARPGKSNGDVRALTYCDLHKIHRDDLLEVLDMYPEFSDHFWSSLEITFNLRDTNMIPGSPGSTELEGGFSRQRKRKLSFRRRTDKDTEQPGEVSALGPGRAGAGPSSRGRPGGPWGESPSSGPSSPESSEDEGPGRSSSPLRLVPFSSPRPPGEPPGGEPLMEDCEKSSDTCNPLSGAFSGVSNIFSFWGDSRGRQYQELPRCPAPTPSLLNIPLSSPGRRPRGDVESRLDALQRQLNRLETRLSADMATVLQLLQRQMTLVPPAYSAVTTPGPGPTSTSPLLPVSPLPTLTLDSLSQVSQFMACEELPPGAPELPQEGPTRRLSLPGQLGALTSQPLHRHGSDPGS

| SMILES | hERG current change (%, negative = inhibition) at 1uM [%] |
| --- | --- |
| COc1cccc(C(=O)COc2ccc3c(C)c(Cc4ccccc4)c(=O)oc3c2C)c1 | -1.99 |
| COc1ccc(/C=C/C(=O)OC(C)C(=O)c2ccccc2)cc1OC (stereo not shown) | -4.85 |
| O=C1CC(Nc2ccccc2)C(=O)N1CCc1ccccc1 (stereo not shown) | 19.4 |
| CC(=O)N[C@@H](Cc1c[nH]c2ccccc12)C(=O)NC1CCCc2ccccc21 (stereo partly shown) | 19.5 |
| Br.COC(=O)CN1C2=NCCCN2c2ccccc21 | -3.47 |
| CC1CCN(C(=O)CC(NC(N)=O)c2ccccc2Cl)CC1 (stereo not shown) | 13.8 |
| O=C(Nc1nnc2n1CCS2)c1ccc(Br)o1 | 14.6 |
| COC(=O)c1ccc(CON2C(=O)c3ccccc3C2=O)cc1 | 6.87 |
| COC(=O)Cc1c(C(=O)OC)nnn1-c1ccc(OC)cc1 | 14.5 |
| COc1ccc(C(=O)Nc2ccc(S(=O)(=O)N3CCOCC3)cc2)cc1OC | -2.02 |
| CCC(C)[C@H](NC(=O)NCCC1=CCCCC1)C(=O)O (stereo partly shown) | 0.285 |
| O=C(NCc1cccnc1)C1CC(c2ccccc2Cl)=NO1 (stereo not shown) | 11.1 |
| COc1ccccc1NS(=O)(=O)c1ccc(OC)c([N+](=O)[O-])c1 | 12.7 |
| Cc1nn(C)cc1NC(=O)c1cc2nc(-c3ccco3)cc(C(F)(F)F)n2n1 | 5.38 |
| COc1ccc(NS(=O)(=O)c2ccc3oc(SC4CCOC4=O)nc3c2)cc1 (stereo not shown) | -0.37 |
| CCC(C)C(NC(=O)C1CCC(C)CC1)C(=O)Nc1cc(OC)ccc1OC (stereo not shown) | -7.01 |
| Cc1cc(OCC(O)CN2CCOCC2)cc(C)c1Cl.Cl (stereo not shown) | 23.7 |
| CCN(CC)C(=O)CN1CCN(Cc2ccc3c(c2)OCO3)CC1.O=C(O)C(=O)O | 11.5 |
| COc1ccc(S(=O)(=O)N2CCCCC2)cc1NC(=O)Cc1ccsc1 | 8.14 |
| CC(C)C1(C)N=C(c2ncccc2C(=O)[O-])NC1=O.[Na+] (stereo not shown) | 13.6 |
| O=C(NC(Cc1ccccc1)C(=O)O)/C(=C\c1ccc(Cl)cc1)NC(=O)c1ccco1 (stereo not shown) | 7.15 |
| O=C1/C(=C/c2ccc([N+](=O)[O-])cc2)CCc2ccccc21 | 9.4 |

| SMILES | hERG current change (%, negative = inhibition) at 1uM [%] |
| --- | --- |
| CCC(C)(C)N=C(NC#N)Nc1cccnc1 | 5.08 |
| COc1cccc(N2CCN(c3ccc4nnc(CCC(=O)Nc5cc(C)ccn5)n4n3)CC2)c1 | 7.75 |
| CN(C)CCN1C(=O)C(=O)/C(=C(/O)c2ccc(F)cc2)C1c1ccccc1 (stereo not shown) | 5.54 |
| Cc1ccc(NC(=O)[C@H](NC(=O)[C@@H]2Cc3ccccc3CN2)c2ccccc2)cc1 | -10.1 |
| CCC(=O)Nc1ccc(NC(=O)CSc2nnc(-c3ccc(O)cc3)n2CC2CCCO2)cc1 (stereo not shown) | -3.28 |
| O=C(NCc1ccc2c(c1)OCO2)c1ccncc1 | -6.47 |
| O=C(NC1CCCCC1)c1cc(-c2cccc(Cl)c2)on1 | 9.26 |
| CCn1nnc(NC(=O)c2cccnc2Cl)n1 | 13.4 |
| Cc1ccccc1/C=N/NC(=O)c1ccc(-n2cnnn2)cc1 | 11.7 |
| Cc1cccc(NC(=O)C2c3ccccc3C(=O)N3CCc4ccccc4C23)n1 (stereo not shown) | -14.7 |
| CCOc1cc(C(=S)N2CCCC2)ccc1OC(=O)Cc1ccc(F)cc1 | 2.19 |
| COc1ccc(C2NC(=O)N(C)C(C)=C2[N+](=O)[O-])cc1 (stereo not shown) | 7.07 |
| O=C(CCCC(=O)Nc1cccc(Br)c1)N/N=C/c1cc([N+](=O)[O-])ccc1O | 2.39 |
| CC1Oc2ccccc2N(CC(=O)NCc2ccccc2)C1=O (stereo not shown) | 6.03 |
| CC(=O)c1c(Nc2cccc(F)c2)oc(C)cc1=O | 12.5 |
| COc1cc(OC)c(NC(=O)CCCNC(=O)Cn2cnc3sc(C)c(C)c3c2=O)cc1Cl | 15.4 |
| N#CC[C@H](Cc1ccccc1)N1CC[C@@H](NC(=O)OCc2ccccc2)CCC1=O | -4.51 |
| CCOc1ccc2[nH]c(=O)c(C(c3nnnn3Cc3ccco3)N3CCC(C)CC3)cc2c1 (stereo not shown) | -3.14 |
| O=C(CSc1nc2cccnc2n1Cc1ccccc1)NCc1ccco1 | -14.7 |
| CC(C)NC(=O)CN(C(=O)CCC(=O)Nc1nccs1)c1ccc(C(C)C)cc1 | 12 |
| CC1=NN(Cc2ccccc2)C(=O)C1 | 2.84 |
| CCCS(=O)(=O)N1CCN(CC2CC=CCC2)CC1.O=C(O)C(=O)O (stereo not shown) | 0.625 |

| SMILES | hERG current change (%, negative = inhibition) at 1uM [%] |
| --- | --- |
| Cc1ccn2c(C(=O)N/N=C\c3ccc4c(c3)OCO4)c(C)nc2c1 | 3.12 |
| Cn1c(-c2ccccc2)cc2c3no[n+]([O-])c3ccc21 | 9.03 |
| COc1ccc(-n2c(O)c(C(C)=Nc3ccc4c(c3)CCC4)c(=O)[nH]c2=O)cc1 | 15.1 |
| Cc1cc(C)c(S(C)(=O)=O)c(Oc2ccc(F)cc2)n1 | 6.83 |
| NC(=O)C1CCN(CC(=O)Nc2cccnc2Cl)CC1 | 9.3 |
| COc1ccc(OC)c(NC(=O)c2cc(-c3cc(C)cc(C)c3O)n[nH]2)c1 | 11.8 |
| Cc1ccc(-n2ncc(C(=O)N3CCc4ccccc4C3)c2NC(=O)c2ccco2)cc1C | 15.3 |
| CN(CC(=O)N1CC(=O)N(CCc2ccccc2)C(=O)C1)S(=O)(=O)c1cccc2nsnc12 | 12.6 |
| CCOc1ccc(Nc2nc(NCCN3CCOCC3)nc(OC)n2)cc1 | -40 |
| O=C(CN1C(=O)NC2(CCCCC2)C1=O)N1CCN(S(=O)(=O)/C=C/c2ccccc2)CC1 | 8.44 |
| COc1cccc(NC(=O)c2ocnc2C)c1 | -0.893 |
| c1ccc(C2c3c(ccc4ccccc34)Oc3ncn4nc(-c5ccco5)nc4c32)cc1 (stereo not shown) | -2.5 |
| O=C1CC(N2CCN(c3ccccc3F)CC2)C(=O)N1c1ccc(F)cc1 (stereo not shown) | 2.75 |
| CCCCOC(=O)C1[C@H]2C(=O)N(c3ccccc3CC)C[C@]23C=C[C@H]1O3 (stereo partly shown) | 2.27 |
| Cc1ccc(NS(=O)(=O)c2cc3c4c(cccc4c2)C(=O)NC3=O)cc1 | 22 |
| CCOC(=O)CN1C(=O)C(O)(C2CCc3ccccc3C2=O)c2ccccc21 (stereo not shown) | 7.13 |
| O=C(c1cccc(-n2cccc2)c1)N1CCN(S(=O)(=O)c2c(F)cccc2F)CC1 | -7.88 |
| Cc1ccc(CN2C(=O)CCC2C(=O)NCc2cccnc2)cc1 (stereo not shown) | 5.88 |
| CCOc1cccc(C(=O)NC(=S)Nc2ccccc2)c1 | 3.84 |
| CCOc1ccc(C(CC(=O)O)NC(=O)Cc2ccccc2)cc1OC (stereo not shown) | 14.9 |
| COCc1[nH]nc2c1C1(CCSCC1)C(C#N)=C(N)O2 | 10.3 |
| COc1ccc(NC(=O)Cn2nnc(-c3ccc(CN4CCOCC4)cc3)n2)c(OC)c1 | -2.8 |

| SMILES | hERG current change (%, negative = inhibition) at 1uM [%] |
| --- | --- |
| Nc1nnc(N)c2ccccc12 | 23.9 |
| CC(C)Oc1ccc(C(=O)NCCNC(=O)c2ccco2)cc1 | 9.59 |
| Cc1cccc(C)c1N1CCN(c2ccc3nnc(C(F)(F)F)n3n2)CC1 | 25 |
| CC(C)CNC(=O)CC1Nc2ccccc2NC1=O (stereo not shown) | 0.539 |
| CC(C)CCNC(=O)CSc1nc2ccsc2c(=O)n1NC(=O)c1ccccc1 | -0.789 |
| O=C(NCC(c1ccco1)N1CCCC1)c1cn(Cc2ccccc2)nc1-c1ccccc1 (stereo not shown) | -35.2 |
| Cl.O=C(COc1ccc(Cl)cc1)N1CCN(Cc2ccc3c(c2)OCO3)CC1 | -16 |
| COc1ccc(CCNC(=O)C(=O)NCC2OCCN2S(=O)(=O)c2cccs2)cc1 (stereo not shown) | 14.3 |
| O=c1cc(N2CCCCC2)c(-c2ccccc2)nn1Cc1c(Cl)cccc1Cl | -0.597 |
| COc1ccc(/C=N/n2c(-c3cc(C)[nH]n3)n[nH]c2=S)cc1 | 14.3 |
| COc1ccc(C(=O)NCc2nc3ccccc3[nH]2)cc1OC | 8.15 |
| COc1ccccc1-c1cc(C(=O)NCCc2ccccc2)no1 | 11 |
| CCCS(=O)(=O)c1ncc(Cl)c(C(=O)Nc2ccc(S(=O)(=O)Nc3ncccn3)cc2)n1 | 14.3 |
| O=C(CCN1C(=O)C2C3CCC(C3)C2C1=O)OCC(=O)c1ccccc1 (stereo not shown) | 3.59 |
| CCC1S/C(=N/N=C/c2ccco2)NC1=O (stereo not shown) | 10.9 |
| NS(=O)(=O)c1ccc(Sc2ccccn2)c([N+](=O)[O-])c1 | 13 |
| CCOC(=O)c1nnn(-c2nonc2-n2cccc2)c1C | 0.343 |
| Cc1cc(O)ccc1NC1=CC(=O)CC(C)(C)C1 | 12.4 |
| COc1ccc(C2/C(=C(/O)c3ccc(C)cc3)C(=O)C(=O)N2C)c(OC)c1 (stereo not shown) | 17.4 |
| O=C1CC(NCc2ccco2)C(=O)N1CCc1ccccc1 (stereo not shown) | -0.679 |
| CCn1c(C(=O)O)c(CC(=O)Nc2ccccc2OC)c2ccccc21 | 8.19 |
| Cc1cc(=O)oc2cc(O[C@@H]3O[C@H](CO)[C@H](O)[C@H](O)[C@H]3O)ccc12 | 5.57 |
